The other results are listed elsewhere or left out. Values were computed here from the reads of four pooled replicates and scatter widely.
Target: T1, Pho4 (S. cerevisiae) (UniProt P07270)
T1 sequence: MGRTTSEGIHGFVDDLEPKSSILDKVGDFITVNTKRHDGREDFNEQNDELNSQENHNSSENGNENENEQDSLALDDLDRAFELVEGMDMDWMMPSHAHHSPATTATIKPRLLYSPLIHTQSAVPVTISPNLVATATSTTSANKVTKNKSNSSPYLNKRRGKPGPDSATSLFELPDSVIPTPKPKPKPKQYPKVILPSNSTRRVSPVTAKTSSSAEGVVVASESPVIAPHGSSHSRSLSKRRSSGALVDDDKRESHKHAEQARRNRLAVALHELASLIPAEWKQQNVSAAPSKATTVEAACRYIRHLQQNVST
Experiment: relative binding free energy (BET-seq); higher = weaker binding
Settings: reference: library average

Sequence	relative binding free energy [kcal/mol]
TAAGACACGTGGGGTG	-0.1
GGTGTCACGTGCCGGG	0.03
TTGCGCACGTGTTTGA	-0.12
AAGTACACGTGATTTG	0.14
GGGGGCACGTGCGGGG	-0.14
GTGGGCACGTGAATGA	0.21
TGAGGCACGTGGCATG	-0.16
GAGTGCACGTGCTTTG	-0.04
ATGGCCACGTGTGAGG	0
ATGGACACGTGGTGAG	0.05
GCTTTCACGTGGGATG	0.25
CGGAGCACGTGGCAGG	-0.14
GTATTCACGTGATTCT	0.28
GTAGTCACGTGGGCTG	-0.06
ACGTGCACGTGGGGCT	-0.26
CTCGGCACGTGGTGTG	-0.16
TGGTGCACGTGATAAT	0
GTTTTCACGTGCTCGT	0.16
CGTGGCACGTGGTATC	-0.13
AAGGTCACGTGAAGGA	0.44
GGATACACGTGTCGGT	0.1
ACAAGCACGTGGGTGT	-0.2
TGGTACACGTGTTCAG	0.03

Sequence	relative binding free energy [kcal/mol]
ATTCGCACGTGTATGG	-0.03
ATTGTCACGTGTCAAG	0.02
CGGGTCACGTGGTTGA	0.13
GAGGGCACGTGGGTAA	-0.16
TAGGTCACGTGGTCAT	-0.05
CGTATCACGTGTAAGG	0.14
GAGTGCACGTGTGGAT	0.03
TGTTGCACGTGTTTGA	0.07
TGATGCACGTGATATG	0.15
TGTACCACGTGTGAGA	0.11
CAAGTCACGTGGGGGC	0.06
AACTGCACGTGGGTGT	-0.04
ATGTTCACGTGCTGAA	0.29
TGTGGCACGTGAAGTC	0.18
TGGCTCACGTGAGAGA	0.58
TGGCGCACGTGGGCTT	-0.29
TTCTTCACGTGGGCTA	0.2
GATGTCACGTGGAAAG	0.11
TATAGCACGTGTGACG	0.03
TAGTGCACGTGTCGTA	0.11
ATGGGCACGTGCGTTT	-0.09
CGTTTCACGTGGTTCG	0.28
GATGCCACGTGGTTGG	-0.1

Sequence	relative binding free energy [kcal/mol]
TTGTCCACGTGGGGAG	-0.09
CGAGGCACGTGGTAGT	-0.13
TAGAGCACGTGAGGAT	0.12
AGTACCACGTGGGTGA	-0.28
ATAGGCACGTGCTGTA	-0.28
TAGGCCACGTGTGGTT	-0.03
TCTGGCACGTGGTTTG	-0.2
GGGGTCACGTGCGTTT	0.19
TAGAGCACGTGAAGGG	0.08
TCCGTCACGTGGTATG	0.13
TGTGTCACGTGAATTA	0.29
GTTGTCACGTGGTTCA	0.06
ACGGTCACGTGGTCGG	-0.1
ATGTTCACGTGTCCGT	0.28
AAAAGCACGTGTAGGG	-0.03
GGGTACACGTGGATGC	0.15
CTGGCCACGTGTTGGT	-0.02
TCGTTCACGTGGGATT	0.16
GAAGACACGTGTTTGA	0.22
TTGTGCACGTGGCTAA	-0.18
GGTTTCACGTGGACGT	0.22
AGTGGCACGTGGGAGG	-0.24
TGAGGCACGTGTCGGG	0

Sequence	relative binding free energy [kcal/mol]
TTGTACACGTGTGAAT	0.11
GTCGACACGTGGTGTT	-0.09
GGGGTCACGTGTCGTC	0.06
AGGCTCACGTGGTGTA	0.15
ATCTGCACGTGTGAGT	0.1
TTTTACACGTGGACTT	0.16
GGGTACACGTGAGCGT	0.11
AGGGGCACGTGTCAGT	-0.11
GGGGTCACGTGACTTG	0.27
TATGTCACGTGTCTTT	0.03
TTTTTCACGTGCGAGG	0.26
GATGTCACGTGTTAAG	0.15
AAATTCACGTGAATGG	0.4
GAGGCCACGTGGGTGG	-0.07
GTGAACACGTGGGGCT	-0.12
TTATTCACGTGTCTCT	0.11
TAGGACACGTGAGGAG	0.27
TGCGGCACGTGCGCGG	-0.19
GTATTCACGTGAGATT	0.5
ATTTGCACGTGCTTAG	-0.03
TCAAGCACGTGGCGGG	-0.05
GAGGACACGTGGTTAT	-0.08
GGGGGCACGTGCTTAT	-0.02

Sequence	relative binding free energy [kcal/mol]
ATAAGCACGTGTGTTG	-0.05
TCAAACACGTGGTGAG	0.22
TTAGTCACGTGGACTA	0.1
TGTAGCACGTGACGTA	0.02
GGTGGCACGTGATGGC	-0.03
TAGGTCACGTGTAAGA	0.15
CAAGTCACGTGTGGGC	0.31
TGGAACACGTGGGTGC	-0.25
GAGTGCACGTGATCGG	0.15
GTGATCACGTGTTTTC	0.25
ATTGTCACGTGTAACG	0.09
GGCGTCACGTGGGAAG	0.06
AATTACACGTGTGTGG	0.05
CTGTTCACGTGGTACG	0.22
ATCGGCACGTGGTATT	-0.15
CTGGGCACGTGTGAAT	0.2
ATAATCACGTGGGGGT	0.03
TTGATCACGTGGTGAG	0.13
GTTTACACGTGTTCAT	0.09
GTAGTCACGTGTGGGA	0.06
CTTGTCACGTGAGCAG	0.29
TGCGTCACGTGGTGGA	0.05
GTGTCCACGTGGAGGC	0.01
